Measured values from publication PMC6602471.
The list shows a part of the results. At the low end of the ranking the order means little.

These sequences were tested against T1, ELK1 (UniProt P19419) (assay: custom PBM). Conditions: custom protein-binding microarray; buffer, salt, pH and temperature not stated; high values mean tight binding; double strand, one strand shown.
T1 sequence: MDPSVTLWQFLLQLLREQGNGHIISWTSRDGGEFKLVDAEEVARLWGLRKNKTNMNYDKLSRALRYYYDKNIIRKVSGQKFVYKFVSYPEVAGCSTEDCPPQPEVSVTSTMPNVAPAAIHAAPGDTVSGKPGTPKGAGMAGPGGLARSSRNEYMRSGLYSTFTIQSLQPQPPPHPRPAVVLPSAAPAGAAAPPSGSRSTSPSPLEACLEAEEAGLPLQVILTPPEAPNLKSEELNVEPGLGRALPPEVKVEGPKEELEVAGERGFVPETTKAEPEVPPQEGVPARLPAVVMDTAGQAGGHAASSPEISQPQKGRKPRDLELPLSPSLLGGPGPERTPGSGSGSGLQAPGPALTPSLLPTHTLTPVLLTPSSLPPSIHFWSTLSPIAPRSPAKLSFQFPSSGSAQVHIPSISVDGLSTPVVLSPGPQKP

Row | Sequence | binding signal (log fluorescence intensity)
1 | GTGTATAGGATCCCATCCAACACCCGTGTTAAAATGGTCTTGATTCGCTTGACGCTGCTG | 8.86
2 | TAAAGGGACGACGGTTGTGGTAGTTCCGGGTATTAAGTCTTGATTCGCTTGACGCTGCTG | 11.3
3 | GTGTATAGGATCCCATCCAACACACGTGTTAACATGGTCTTGATTCGCTTGACGCTGCTG | 8.68
4 | GCTGCTGCGGTGCATACCCCACCGGATGTGACCCGGGTCTTGATTCGCTTGACGCTGCTG | 10.3
5 | TAAAGGGAAGACGGTTGTGTTAGTTCCGGGTATTAAGTCTTGATTCGCTTGACGCTGCTG | 11.3
6 | TCCGGCTACCAGCTCCACCCACTTCAGGCCTTGTGGGTCTTGATTCGCTTGACGCTGCTG | 8.96
7 | CGGAAGTGTCGTAAACGTCGGATATCCGGGTCTTCTGTCTTGATTCGCTTGACGCTGCTG | 11.9
8 | GCTGCTGCGGTGCATACCCCACCGGATGTGACTCCGGTCTTGATTCGCTTGACGCTGCTG | 10.3
9 | GCTGCTGCGGTGCATACCTCACCGGATGTGACCCCGGTCTTGATTCGCTTGACGCTGCTG | 10.1
10 | GCTGCTGCGGTGCATACCCCACCCGATGTGACCCCGGTCTTGATTCGCTTGACGCTGCTG | 8.86
11 | GATTAATTTCTGCCCTTATTCGCACGAGCCATAACAGTCTTGATTCGCTTGACGCTGCTG | 8.88
12 | CTGGGACTTGATCCAACTCTGCCACGTGGGTCGTTTGTCTTGATTCGCTTGACGCTGCTG | 8.95
13 | CGGAAGGGTCGTAAACGTCGGATATCCGGTTCTTCTGTCTTGATTCGCTTGACGCTGCTG | 12.1
14 | TCCGGCTACCAGCTCCACCCACTTCAGGTCTTGTAGGTCTTGATTCGCTTGACGCTGCTG | 8.83
15 | CACAATTTTTACAGTAATGTAGCTCGCGTAACTCCTGTCTTGATTCGCTTGACGCTGCTG | 8.86
16 | CACAATTTTTACAGTAATGTAGGACGCGTAACTCCTGTCTTGATTCGCTTGACGCTGCTG | 8.86
17 | CGGAAGTGTCGTAAACGTGGGATATCCGGTTCTTCTGTCTTGATTCGCTTGACGCTGCTG | 11.4
18 | TGAAAAAGGCCCAGGGTAACACCGGAAGTGGGCTTAGTCTTGATTCGCTTGACGCTGCTG | 11
19 | GCTTCTGCGGTGCATACCCCACCGGATGTGACCCCGGTCTTGATTCGCTTGACGCTGCTG | 10.3
20 | CACAATTTTTACAGTAATGTAGCACGCGTAAATCCTGTCTTGATTCGCTTGACGCTGCTG | 8.89
21 | GATTAATTTCTGCTCTTATTCGCACGTGCCATAACAGTCTTGATTCGCTTGACGCTGCTG | 8.82
22 | CTGGGACTTGACCCAACTGTGCCACGTGGGTCGTTTGTCTTGATTCGCTTGACGCTGCTG | 8.72
23 | TGTCGGGTAAGGGGATGTAGATCACGTGAATGAAAAGTCTTGATTCGCTTGACGCTGCTG | 8.93
24 | TAAAGGGAAGACGGTTGTGCTAGTTCCGGGTATTAAGTCTTGATTCGCTTGACGCTGCTG | 11.3
25 | CGGAAGTGTCGTAAACGTCGGATATCCGGTTCTTATGTCTTGATTCGCTTGACGCTGCTG | 12.4
26 | GGAAAAAGGCCCAGGGTAACACCGGAAGTTGGCTTAGTCTTGATTCGCTTGACGCTGCTG | 11

Row | Sequence | binding signal (log fluorescence intensity)
27 | CAGCATACGACTTCTTCCCTGAAGCAATTGATAACCGTCTTGATTCGCTTGACGCTGCTG | 8.81
28 | CACAATTTTTACAGTAATGTAGCACGCGTAACACCTGTCTTGATTCGCTTGACGCTGCTG | 8.84
29 | TCCGGCTACCATCTCCACCCACTTCAGGCCTTGTAGGTCTTGATTCGCTTGACGCTGCTG | 8.8
30 | CTGGGACTTGACCCAACCCTGCCACGTGGGTCGTTTGTCTTGATTCGCTTGACGCTGCTG | 8.96
31 | CGGAAGTGTCGTAAACGTCGGATTTCCGGTTCTTCTGTCTTGATTCGCTTGACGCTGCTG | 12.4
32 | GCTGCTGTGGTGCATACCCCACCGGATGTGACCCCGGTCTTGATTCGCTTGACGCTGCTG | 10.4
33 | TAAAGGGAAGACGGTTGTGGTAGTTCCGGGTGTTAAGTCTTGATTCGCTTGACGCTGCTG | 11.3
34 | CAGCATAGGACTTCTTCCCTGAAGCAATTAATAACCGTCTTGATTCGCTTGACGCTGCTG | 8.85
35 | TCCGGCTACCAGCTCCACCAACTTCAGGCCTTGTAGGTCTTGATTCGCTTGACGCTGCTG | 8.78
36 | CACAAGTTTTACAGTAATGTAGCACGCGTAACTCCTGTCTTGATTCGCTTGACGCTGCTG | 8.84
37 | GTGTATAGGAGCCCATCCAACACACGTGTTAAAATGGTCTTGATTCGCTTGACGCTGCTG | 8.92
38 | GGAAAAAGGCCCAGGGTAACAGCGGAAGTGGGCTTAGTCTTGATTCGCTTGACGCTGCTG | 10
39 | TCCGGCTACCAGCTCGACCCACTTCAGGCCTTGTAGGTCTTGATTCGCTTGACGCTGCTG | 8.79
40 | GCTGCCGCGGTGCATACCCCACCGGATGTGACCCCGGTCTTGATTCGCTTGACGCTGCTG | 10.5
41 | GATTAATTTCTGCCCTTATTCACACGTGCCATAACAGTCTTGATTCGCTTGACGCTGCTG | 8.81
42 | TCCGGCTACCCGCTCCACCCACTTCAGGCCTTGTAGGTCTTGATTCGCTTGACGCTGCTG | 8.93
43 | TCCGGCTACCAGCTCCACCCACTTCAGGCTTTGTAGGTCTTGATTCGCTTGACGCTGCTG | 8.84
44 | CATAATTTTTACAGTAATGTAGCACGCGTAACTCCTGTCTTGATTCGCTTGACGCTGCTG | 8.87
45 | TCCGGCTACCAGCTCCACGCACTTCAGGCCTTGTAGGTCTTGATTCGCTTGACGCTGCTG | 8.85
46 | TGTCGGGTAAGTGAATGTAGATCACGTGAATGAAAAGTCTTGATTCGCTTGACGCTGCTG | 8.9
47 | GTGTATAGGATCCCATCCAACGCACGTGTTAAAATGGTCTTGATTCGCTTGACGCTGCTG | 8.84
48 | CGGAAGTGTCGTAAACGTCGGATAGCCGGTTCTTCTGTCTTGATTCGCTTGACGCTGCTG | 9.03
49 | GTGTATCGGATCCCATCCAACACACGTGTTAAAATGGTCTTGATTCGCTTGACGCTGCTG | 8.86
50 | TACAATTTTTACAGTAATGTAGCACGCGTAACTCCTGTCTTGATTCGCTTGACGCTGCTG | 8.77
51 | TAGCATAGGACTTCTTCCCTGAAGCAATTGATAACCGTCTTGATTCGCTTGACGCTGCTG | 8.82
52 | CACAATTTTTACAGTAATGTAGCAAGCGTAACTCCTGTCTTGATTCGCTTGACGCTGCTG | 8.94
